From publication PMC4336329 (PLoS ONE, 2015)
In all, about 310,000 compounds went through this assay and about 14,000 (4.5%) showed an effect of 50% or more. The effect is printed as a negative number. The list shows a part of the results.

Biological target: human ether-à-go-go-related gene (hERG) potassium channel (human, UniProt Q12809)
Experiment: primary screen, population patch clamp on CHO cells stably expressing hERG
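Note: peak tail current of the secondary pulse compared with the same well before compound.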

human ether-à-go-go-related gene (hERG) potassium channel, sequence (Q12809 whole entry, looked up): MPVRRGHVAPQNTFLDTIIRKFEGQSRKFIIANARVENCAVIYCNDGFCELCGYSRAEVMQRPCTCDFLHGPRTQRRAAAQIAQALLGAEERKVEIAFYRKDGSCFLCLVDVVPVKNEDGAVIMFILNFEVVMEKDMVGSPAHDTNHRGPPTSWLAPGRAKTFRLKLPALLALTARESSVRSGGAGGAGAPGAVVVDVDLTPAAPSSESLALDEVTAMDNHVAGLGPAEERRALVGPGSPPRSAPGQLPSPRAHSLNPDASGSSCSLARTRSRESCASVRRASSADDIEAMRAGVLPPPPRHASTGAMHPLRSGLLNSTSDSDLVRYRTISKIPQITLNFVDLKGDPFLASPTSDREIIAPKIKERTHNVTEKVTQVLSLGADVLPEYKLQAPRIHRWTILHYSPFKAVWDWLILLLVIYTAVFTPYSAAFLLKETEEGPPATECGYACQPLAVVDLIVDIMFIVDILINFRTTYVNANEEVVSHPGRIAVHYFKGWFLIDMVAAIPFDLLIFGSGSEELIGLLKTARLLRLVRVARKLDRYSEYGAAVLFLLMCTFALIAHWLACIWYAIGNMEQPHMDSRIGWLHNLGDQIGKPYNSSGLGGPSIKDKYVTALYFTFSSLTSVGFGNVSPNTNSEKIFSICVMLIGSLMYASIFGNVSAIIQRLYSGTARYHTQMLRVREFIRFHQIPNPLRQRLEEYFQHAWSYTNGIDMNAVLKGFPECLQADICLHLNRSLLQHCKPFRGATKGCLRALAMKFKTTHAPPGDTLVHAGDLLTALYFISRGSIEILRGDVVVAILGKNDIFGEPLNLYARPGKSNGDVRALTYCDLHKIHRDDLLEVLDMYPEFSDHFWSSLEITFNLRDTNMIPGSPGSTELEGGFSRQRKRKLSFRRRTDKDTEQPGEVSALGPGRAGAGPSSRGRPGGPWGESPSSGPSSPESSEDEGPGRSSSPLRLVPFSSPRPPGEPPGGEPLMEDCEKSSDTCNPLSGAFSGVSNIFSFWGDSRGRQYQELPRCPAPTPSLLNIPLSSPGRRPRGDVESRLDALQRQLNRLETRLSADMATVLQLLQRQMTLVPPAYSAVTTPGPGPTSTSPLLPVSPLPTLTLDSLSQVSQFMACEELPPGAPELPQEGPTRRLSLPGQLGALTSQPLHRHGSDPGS

Structure (SMILES) | hERG current change (%, negative = inhibition) at 10uM
N#Cc1cc(-c2ccccc2)[nH]c1-c1nccc2ccccc12 | 8.97%
CC1CC(C)CN(CCOCCSc2ccccc2)C1.O=C(O)C(=O)O (stereo not drawn) | -45.1%
Cc1ccc(N2C(=O)[C@@H]3C(C(=O)C(c4ccccc4)c4ccccc4)=NN[C@@H]3C2=O)cc1 | -0.905%
Cc1cc(OCC#N)nc(N)n1 | 3.69%
CCCOc1ccc(C(=O)NC(C)C(=O)O)cc1 (stereo not drawn) | 4.87%
CCN(CC)C(=O)CSc1nc2sc3c(c2c(=O)n1-c1ccc(C)cc1)CC(C)(C)SC3 | -20.3%
COc1ccc(OC)c(NC(=O)CN2C(=O)C3(OCCCO3)c3ccccc32)c1 | -4.13%
COc1ccc(S(=O)(=O)Nc2cccc(C)n2)c2ccccc12 | -1.83%
Cc1cccc(C)c1NC(=O)COC(=O)c1ccc(N2CCCC2)c([N+](=O)[O-])c1 | -1.93%
COc1cc(/C=C2/SC(=O)NC2=O)ccc1OCc1ccccc1 | 17.9%
Cc1ccc(S(=O)(=O)N[C@H](C(=O)N2CCC3(O)CCCCC3C2)c2ccccc2)cc1 (stereo partly drawn) | -9.4%
Cc1ccccc1OCC(=O)OCC(=O)NCCc1ccccc1 | 14.1%
COc1cc(C#N)ccc1OC(=O)C1CCN(C(=O)c2ccc(F)cc2)CC1 | -23.9%
COCCNC(=O)c1cc(-c2ccccn2)nc2ccc(S(=O)(=O)N3CCC(C)CC3)cc12 | -61.8%
O=C(CNC(=O)N1CC(=O)Nc2ccccc21)Nc1cc(Cl)ccc1Cl | -1.78%
O=C(NC(Cc1ccccc1)C(=O)O)/C(=C/c1ccc(Br)cc1)NC(=O)c1ccc(Br)o1 (stereo not drawn) | 10.4%
Cc1c(Cl)cccc1NC(=O)C1=COCCO1 | 10.6%
CSCCC(NC(=O)COc1ccccc1)C(=O)OCc1ccc([N+](=O)[O-])cc1 (stereo not drawn) | -70.8%
O=C(CCC(=O)OCc1ccc(Cl)cc1)Nc1ccccc1 | -2.43%
COc1ccc(CCNC(=O)N2CCOCC2)cc1 | 3.45%
NS(=O)(=O)c1cccc(NC(=O)CSc2ncnc3ccccc23)c1 | -3.55%
COc1ccc2[nH]c(C(=O)O)c(CCN3C(=O)c4ccc(C(=O)O)cc4C3=O)c2c1 | 14.6%

Structure (SMILES) | hERG current change (%, negative = inhibition) at 10uM
CCc1ccccc1NC(=O)N1CCCC(CCC(=O)N(C)CCc2ccccn2)C1 (stereo not drawn) | 13.1%
CCn1c(SCC(=O)C(C)(C)C)nnc1-c1cnccn1 | -4.47%
COc1ccc(C(=O)CCC(=O)Nc2ccc(Cl)cc2)cc1 | 11.2%
COc1ccc(C(=O)NC(C(=O)NCC2(N3CCCCC3)CCCCC2)C(C)C)cc1 (stereo not drawn) | -4.21%
CCS(=O)(=O)N1CCCC(C(=O)N2CCc3ccccc3C2)C1 (stereo not drawn) | -6.95%
CCOC(=O)N1CCN(C(=O)c2ccc3c(c2)N(Cc2cccc(Cl)c2)C(=O)c2ccccc2S3=O)CC1 (stereo not drawn) | -9.54%
Cc1nc(SCC(=O)N2CCOCC2)c2c(=O)n(C)c(=O)n(C)c2n1 | 0.699%
CCNC(=S)N1CCN=C1Nc1nc(C)cc(C)n1 | -3.67%
COc1ccccc1C(=O)NNC(=S)NC(=O)c1cccs1 | 21.9%
CCOC(=O)c1c(CN2CCC(C)CC2)oc2ccc(OC)cc12 | -51.2%
CC(=O)N1C(=O)C(=C2C=C(C)OC(C)=C2)c2ccccc21 | -8.12%
O=C1OCc2cc(N=Nc3c(O)[nH]c(=O)[nH]c3=O)ccc21 | 11.8%
CCc1ccc(CN(C)CC(=O)Nc2ccc3c(c2)CCC3)cc1 | 9.39%
O=[N+]([O-])c1cc(Cl)ccc1NCCNS(=O)(=O)c1ccccc1 | -5.56%
CCC1(C)Cc2ccccc2-c2nc(NCCCO)n(-c3ccccc3)c(=O)c21 (stereo not drawn) | -48.6%
CCNS(=O)(=O)c1ccc(CCC(=O)NCCC2=CCCCC2)cc1 | -23.6%
N#C/C(=C\c1ccco1)C(=O)Nc1cccc2ncccc12 | 3.61%
CN(C(=O)c1ccc2c(c1)OCCO2)c1c(N)n(Cc2ccccc2)c(=O)[nH]c1=O | 2.18%
CCN(CC(=O)NCc1ccc(Cl)cc1)C(=O)/C=C/c1ccc(C#N)cc1 | -62%
COc1ccc2[nH]c(=O)c(CNc3ccccc3)cc2c1 | 11.3%
Cc1nc2nc[nH]n2c(=O)c1C/C=C/c1ccccc1 | 15.8%
O=C(CN1CCN(Cc2ccccc2)CC1)Nc1cccc(S(=O)(=O)N2CCCCCC2)c1 | -76.3%

Structure (SMILES) | hERG current change (%, negative = inhibition) at 10uM
O=C(NC(=S)N1CCN(c2ccccn2)CC1)c1ccco1 | 20.2%
CCOC(=O)c1c(NC(=O)c2cc(-c3cccc(O)c3)on2)sc(C(C)=O)c1C | 21.7%
CCc1ccc(N2CC(C(=O)NCCC3=CCCCC3)CC2=O)cc1 (stereo not drawn) | 7.08%
CCOC(=O)C1CCN(C(=O)COc2cccc(C)c2)CC1 | -2.48%
CC(C)c1cc(NCC2CCCO2)n2c(nc3ccccc32)c1C#N (stereo not drawn) | -41%
Cc1cc(C)c(-c2csc(NC(=O)/C=C/c3cccs3)n2)c(C)c1 | -3.06%
Cc1cc(Oc2ccc(=O)n(C)n2)nc(Oc2ccc(=O)n(C)n2)n1 | -0.695%
O=C(Nc1ccccc1C(=O)N1CCOCC1)c1ccncc1 | 3.42%
CC(=O)Nc1ccc(S(=O)(=O)NNC(=O)COc2cc(C)ccc2C(C)C)cc1 | 8.27%
Fc1ccc(Cn2nnnc2C(c2ccc(Cl)cc2)N2CC=C(c3ccc(F)cc3)CC2)cc1 (stereo not drawn) | 10.1%
Cc1ccc(CNC(=O)C2CC(=O)N(CCC(C)C)C2)cc1 (stereo not drawn) | 7.87%
O=S(=O)(NCc1ccc(F)cc1)c1cc(Br)ccc1Br | -5.58%
Cc1ccc(Nc2nc(N)nc(CSc3nnc(-c4ccncc4)o3)n2)cc1 | 2.59%
N/C(=N\OC(=O)CC1CCCCC1)c1ccc(Cl)cc1 | 15.4%
O=C(c1ccco1)N(Cc1nc2ccccc2c(=O)[nH]1)C1CCCC1 | -8.35%
CC/C(=N\Nc1ccc([N+](=O)[O-])cc1)c1ccccc1 | 3.48%
Cc1cccc(N2CCN(C(=O)Cn3sc4nc(C)cc(C)c4c3=O)CC2C)c1 (stereo not drawn) | -2.48%
C#CCOCCOCCOCCNc1nc(N2CCN(C(=O)Cn3cc(CC(C)O)nn3)CC2)nc(N2CCN(C(=O)Cn3cc(CC(C)O)nn3)CC2)n1 (stereo not drawn) | -7.58%
O=C(Nc1ccc(N2CCN(C(=O)c3ccco3)CC2)cc1)c1ccccc1 | -0.203%
CCOc1ccc(N2CC(C(=O)Nc3ccc(S(=O)(=O)N4CCCC4)cc3)CC2=O)cc1 (stereo not drawn) | -11.7%
Cc1ccc(Cn2ccccc2=N)cc1.Cl | 9.85%
CCOC(=O)c1sc(NC(=O)c2ccc(S(=O)(=O)N3CCOCC3)cc2)nc1-c1ccccc1 | -27.6%

Structure (SMILES) | hERG current change (%, negative = inhibition) at 10uM
O=C(Cc1cccc2ccccc12)NN1C(=O)/C(=C\c2cccnc2)SC1=S | 15.3%
CC(C)(C)OC(=O)N/N=C\c1ccc(OC(=O)c2ccco2)cc1 | 8.67%
CN1CCN(NC(=O)c2cccc(S(=O)(=O)N3CCCCCC3)c2)CC1.Cl | -4.12%
CCCNC(=O)c1cccc(COCC(F)(F)C(F)F)c1 | -5.62%
C=CCn1c(SCCOc2ccc(OC)cc2)nnc1C(C)NC(=O)c1ccc(OC)cc1 (stereo not drawn) | 9.13%
Cc1ccc(-n2cc(-c3ccc([N+](=O)[O-])cc3)[nH]c2=S)c(C)c1 | -51.3%
Cc1ccc(C)c(NC(=O)c2cc(-c3ccccc3O)n[nH]2)c1 | 17.4%
COC(=O)Nc1nnc(SCc2ccc(C)cc2)s1 | 19.5%
Cn1c(=O)c2c(nc(Br)n2Cc2nnc(N)s2)n(C)c1=O | 14.8%
COCC1OS(=O)(=O)NC(CC(=O)SC(C)(C)C)C1C (stereo not drawn) | 7.04%
Cc1nn(CCOc2cccc(Br)c2)c(C)c1[N+](=O)[O-] | 6.29%
COc1ccc(N(CC(=O)Nc2ccccc2C(=O)NCC(C)C)S(C)(=O)=O)cc1 | 8.6%
COc1ccc([N+](=O)[O-])cc1Nc1ncnc2ccccc12 | 12.7%
Cc1ccc(S(=O)(=O)/C(=C/Cl)NC(=O)c2ccccc2)cc1 | -0.508%
Cc1cccc(N2CCN(C(=O)c3ccc(Cl)c(S(=O)(=O)N4CCc5ccccc5C4)c3)CC2)c1C | 6.09%
CC(=O)N(C1CC(C)C(C#N)(C#N)C1(C#N)C#N)N(C)C (stereo not drawn) | -14.5%
COc1ccc(N(CC(=O)Nc2cccc3ccccc23)S(C)(=O)=O)cc1 | -1.75%
COc1ccc(CCN)cc1O.Cl | 13.2%
CC#CCN(CC#CC)S(=O)(=O)c1ccc(-n2cnnn2)c(OC)c1 | -3.48%
COc1ccccc1CN(C)C(=O)c1ccc2c(c1)NC(=O)CS2 | -8.83%
CC(C)(C)c1ccc(C(CC(=O)O)NC(=O)Cc2ccccc2)cc1 (stereo not drawn) | 15.3%
